Assay results from PubChem BioAssay AID463173 (ICCB-Longwood Screening Facility, Harvard Medical School, 2010).
Hit rate of the full screen: of about 52,000 compounds, about 4,300 (8.3%) were called active. No stated cut-off is given here; in the data, active means survival mostly below about 52% (no sharp cut-off); inactive means mostly above about 56%. The list shows a part of the results.

These compounds were tested on DeltatarO mutant (assay: S. aureus survival, RN4220 and DeltatarO strains – OD600, teichoic acid synthesis inhibitors, primary screen (AID 463173)). Details: S. aureus RN4220 wild type/DeltatarO growth, OD600, 18 h, active compounds read low, screened at 18.75 µg/mL (by protocol).

SMILES | survival
CCC(=O)N1CCc2cc(Br)cc(S(=O)(=O)CCC(=O)N3CCN(c4ccccc4OC)CC3)c21 | inactive: 80%
COc1cc(OC)cc(C(=O)N2CCC(C(=O)NCCc3ccccc3)CC2)c1 | inactive: 98%
COc1ccc(-c2ccnc3[nH]n(-c4ccccc4)c(=O)c23)cc1 | inactive: 61%
COc1ccccc1N1CCN(S(=O)(=O)c2ccc3[nH]c4c(c3c2)CCCC4)CC1 | inactive: 79%
COc1ccc(OCC(=O)Nc2ccc3c(c2)OCO3)cc1 | inactive: 76%
CCOc1cccc(NC(=O)C2CC(=O)N(C)C(=Nc3cccc(OC)c3)S2)c1 (centres undefined) | inactive: 82%
CCN(CCCNC(=O)CSc1cc(=O)n(C)c2ccccc12)c1ccccc1 | inactive: 65%
O=C(Nc1ccc(Cl)cc1Cl)c1cc(S(=O)(=O)N2CCC3(CC2)OCCO3)ccc1F | inactive: 96%
Cc1cc(C)c(NC(=O)C(C)n2c(=O)cc(C)c3c(C)nn(-c4ccccc4)c32)c(C)c1 (centres undefined) | inactive: 81%
O=C(NC1CCCCCC1)C1CCN(C(=O)N2CCOc3ccc(Cl)cc32)CC1 | active: 46%
CCCCc1nn2c(=O)cc(COC(=O)c3cccc(NC(=O)COc4ccccc4)c3)nc2s1 | inactive: 97%
Cc1cc(C)n(-c2nc3ccccc3nc2Nc2ccc(C(C)C)cc2)n1 | active: 8%
CCOCCCNC(=O)c1ccc2c(c1)NC(=O)C(CS(=O)(=O)Cc1ccc(F)cc1Cl)N2 (centres undefined) | inactive: 88%
CC(OC(=O)C1CCCCC1)c1nc2ccccc2[nH]1 (centres undefined) | inactive: 92%
Cc1cc(C)c(NC(=O)Cn2c(=O)n(-c3cccc(C(F)(F)F)c3)c(=O)c3c(C)c(C)sc32)c(C)c1 | inactive: 92%
COc1ccccc1NC(=O)C(Cc1ccccc1)NS(=O)(=O)c1ccc2c(c1)CCN2C(C)=O (centres undefined) | inactive: 84%
O=C(O)c1ccc(Nc2nc3ccccc3c3nncn23)cc1 | inactive: 95%
CCc1ccccc1Nc1nn2c(=O)c3ccc(C(=O)NCc4ccc(C)cc4)cc3nc2s1 | inactive: 93%
Nc1ccc(N2CCOCC2)cc1C(F)(F)F | inactive: 80%
CC(=O)N1CCc2c(sc3c2c(=O)n(-c2ccccc2)c(=O)n3CC(=O)c2ccc(Cl)cc2)C1 | inactive: 93%
O=C(NCc1cccc(F)c1)C1CCN(c2nc3ccccc3nc2C(F)(F)F)CC1 | inactive: 92%
COCCNC(=O)CCn1c(=O)c2cc(OC)c(OC)cc2n(CC(=O)Nc2ccc(F)c(Cl)c2)c1=O | inactive: 62%
O=C(NCCCc1nc2ccccc2n1Cc1ccc(F)cc1)C1CCCCC1 | inactive: 78%

SMILES | survival
Cc1ccc(C)c(CSc2nc3c([nH]c4ccccc43)c(=O)n2C)c1 | inactive: 86%
COC(=O)C1=C(N)OC2=C(C(=O)CCC2)C1c1ccc(OC)cc1 (centres undefined) | inactive: 102%
CC(C)c1ccc2oc(-c3ccc(Cl)c(NC(=O)c4cccs4)c3)nc2c1 | active: 5%
Cn1nc(-c2ccc(OCC(=O)Nc3cccc(C(F)(F)F)c3)cc2)c2ccccc2c1=O | inactive: 78%
Cc1cccc(C)c1OCc1cc(=O)n2c(-c3ccccc3)csc2n1 | active: 19%
COc1ccc(NC(=O)c2cc(S(=O)(=O)N3CCOCC3)cn2C)cc1Cl | inactive: 108%
COCCCNC(=O)c1ccc(Cn2c(=O)c3ccccc3n(CC(N)=O)c2=O)cc1 | inactive: 81%
CCN(C(=O)c1ccc2c(c1)N(Cc1cccc(Cl)c1)C(=O)c1ccccc1S2=O)c1ccccc1 (centres undefined) | active: 32%
COc1ccc(-c2cc3nc(N)cc(=O)n3[nH]2)cc1 | inactive: 148%
CCC(=O)N1c2ccccc2CC1C(=O)NCCCN1CCN(c2cc(C)ccc2C)CC1 (centres undefined) | inactive: 116%
N#CCCn1nc(-c2ccccc2)cc1-c1ccccc1 | inactive: 73%
COc1ccc2oc(=O)c(-c3nnc(-c4ccccc4)o3)cc2c1 | inactive: 69%
COc1cccc2c1cc1c(=O)n(CC(=O)N3CCN(c4ccccc4F)CC3)nc(C)n12 | inactive: 95%
O=C1CS(=O)(=O)C2(C(=O)Nc3ccccc32)N1c1cccc(Cl)c1 (centres undefined) | inactive: 88%
CCOc1ccc(NC(=O)CCCc2nc(-c3cccc(OC)c3)no2)cc1 | inactive: 53%
CCN(CC)CCNC(=O)c1cc(-c2ccc(Br)s2)nc2ccccc12 | active: 28%
Cc1nc(-n2nc(C)c(Cc3ccc4c(c3)OCO4)c2C)sc1C(=O)Nc1cccc(Cl)c1 | inactive: 78%
CCc1nn(CC(=O)Nc2cc(C)cc(C)c2)c(=O)c2cc3sccc3n12 | inactive: 53%
Cc1ccc(CN2CCCn3nc(C(=O)NCc4ccc(OC(C)C)cc4)cc3C2=O)cc1 | inactive: 83%
Nc1nsnc1C(=O)NCCO | inactive: 83%
Cc1ccc(NS(=O)(=O)c2cnc(N)nc2)c(C)c1 | inactive: 81%
CCN(CC)CCNC(=O)C1CCN(c2cc(C)nc3c(-c4ccc(Cl)cc4)c(C)nn23)CC1 | inactive: 139%
CCC(C(=O)Nc1nnc2n1CCS2)c1ccccc1 (centres undefined) | inactive: 55%

SMILES | survival
Cc1cc2nc(-c3ccc(SCC#N)nc3)[nH]c2cc1C | inactive: 74%
Cc1ccc(CN2C(=O)CN(C3CCC(C)CC3)C(=O)C2c2ccc(F)cc2)cc1 (centres undefined) | inactive: 91%
COc1ccc(Cn2c(=O)n(-c3ccccc3C)c(=O)c3c4c(sc32)CN(C(C)=O)CC4)cc1 | inactive: 63%
NS(=O)(=O)c1ccc(NC(=O)/C=C/C(=O)O)cc1 | inactive: 107%
CCCN(CCC)CCNC(=O)c1cc2c(-c3ccc(Cl)cc3)nn(C)c2s1 | inactive: 124%
CCOc1ccccc1NC(=O)N1CCN(C)c2ncccc21 | inactive: 86%
CSc1cccc(NC(=O)CC(c2cccs2)N2Cc3ccccc3C2=O)c1 (centres undefined) | inactive: 112%
COc1ccc2nc(NC(=O)c3nc(S(=O)(=O)Cc4ccccc4)ncc3Cl)sc2c1 | inactive: 77%
CSc1ccc(CCNC(=O)CCc2c(C)nc3c(c(C)nn3-c3ccc(C)c(C)c3)c2C)cc1 | inactive: 91%
CCc1ccc2c(c1)c1nnc(SCC(=O)NC3CCCCC3C)nc1n2C (centres undefined) | inactive: 85%
CCOC(=O)c1cccc(NC(=O)c2ccc3nc(C(C)C)oc3c2)c1 | inactive: 67%
CC1(C)C(=O)NCCN1C(=O)CCC(=O)O | inactive: 98%
CCCNC(=O)CSc1nc2ccccc2nc1Cc1ccc(Cl)cc1 | inactive: 74%
Cc1ccc(C)c(CN2C(=O)c3ccccc3S(=O)(=O)c3ccc(C(=O)N4CCc5ccccc54)cc32)c1 | inactive: 71%
Cc1ccc(OCC(=O)NCC(c2ccc(Cl)cc2)N2CCCCC2)cc1 (centres undefined) | inactive: 60%
Cc1ccc2c(c1)N(CC(=O)NC(C)(C)C)C(=O)C(C)O2 (centres undefined) | inactive: 91%
COc1ccc2[nH]c(=O)c(CN(C3CCCC3)S(=O)(=O)c3cccc4nsnc34)cc2c1 | inactive: 96%
COc1ccc(NC(=O)N2CCc3c(sc4c3CCCC4)C2c2ccccc2OC)cc1 (centres undefined) | active: 54%
CC(C)CC(=O)Nc1ccc2nc(SCC(=O)N3CCCC3)sc2c1 | inactive: 88%
CCOC(=O)c1c(C)sc(-c2c(-c3cc(C)ccc3C)[nH]c3c2c(=O)n(C)c(=O)n3C)c1O | inactive: 105%
Cc1ccc(NC(=O)CCn2nc(C)c(S(=O)(=O)N3CCCCC3)c2C)cc1Cl | inactive: 130%
CCOc1ccc(N(CC(=O)Nc2cc(C)ccc2C)S(=O)(=O)c2c(C)[nH]c(=O)[nH]c2=O)cc1 | inactive: 69%
O=C(NCc1ccc2c(c1)CCN2C(=O)c1ccccc1)Nc1cc(F)ccc1F | inactive: 97%

SMILES | survival
CCOC(=O)Cc1ccc(NC(=O)Nc2ccccc2OCc2cc(=O)n3ccccc3n2)cc1 | inactive: 72%
COc1ccc(Cn2c(CNS(=O)(=O)c3ccc(C)c(C)c3)nc3cccnc32)cc1 | active: 17%
CCn1nnc2cc(C(=O)Nc3cccc(Cl)c3C)ccc21 | inactive: 60%
COc1ccc(-c2nc3scc(CCNS(=O)(=O)c4ccccc4F)n3n2)cc1 | inactive: 90%
COc1ccc(C)cc1S(=O)(=O)NCC(c1cccs1)S(=O)(=O)c1ccc(C)cc1 (centres undefined) | inactive: 69%
CC(Oc1ccc(F)cc1)C(=O)Nc1nc(-c2ccc(F)cc2)ns1 (centres undefined) | active: -2%
CCN1CCN(c2ncnc3c2cnn3-c2ccc(C)c(Cl)c2)CC1 | inactive: 119%
COc1ccc(-n2c(C)c(C(C)=O)c3cc(OC(=O)c4ccc(C)cc4)ccc32)cc1 | inactive: 52%
CCOC(=O)c1ccc(OCC2c3cc(OC)c(OC)cc3CCN2C(=O)c2ccc(S(=O)(=O)N3CCCC3)cc2)cc1 (centres undefined) | inactive: 89%
CCn1c(CNC(=O)c2ccc(OC)cc2)nnc1SCC(=O)Nc1ccccc1 | inactive: 128%
COC(=O)c1ccc(NC(=O)CCc2c(C)nc3c(-c4ccccc4)c(C)nn3c2C)cc1 | inactive: 74%
C=CCn1c(O)c(CN2CCN(Cc3ccccc3)CC2)c(C)c(C#N)c1=O | inactive: 88%
CCC1=Nc2cc(C(=O)NCC(C)c3ccccc3)ccc2Sc2ccc(C)cc21 (centres undefined) | inactive: 57%
Cc1ccc(CCNC(=O)c2cn(C)c3ccc(S(=O)(=O)N(C)C4CCCCC4)cc3c2=O)cc1 | inactive: 87%
CCOC(=O)Cn1c(=O)n(CC2CCCO2)c2nc(-c3ccccc3F)nc(C(N)=O)c21 (centres undefined) | inactive: 90%
Cc1cccc(NC(=O)c2cc(S(=O)(=O)NCc3ccc4c(c3)OCO4)ccc2F)c1C | inactive: 95%
Cc1ccc(Cn2cc(C(=O)c3ccc(F)cc3)c(=O)c3cc4c(cc32)OCO4)cc1 | inactive: 56%
COc1ccc(CNS(=O)(=O)c2cc3c(cc2C)N(C)CCO3)cc1 | inactive: 98%
COc1cccc(CSc2nnc(-c3ccc(F)cc3)o2)c1 | inactive: 90%
C=C(C)c1cccc(C(C)(C)NC(=O)NCc2cccnc2)c1 | inactive: 107%
